# Data reported in the supplement of paper PMC10338343.
# ± gives the standard deviation. This is a selection; strong and weak results do not stand in their true shares.
# System: MIWI (PIWIL1) piRISC loaded with piRNA #1 (30 nt)
# Experiment: pre-steady-state target cleavage rate (min^-1); MIWI and MILI are mouse PIWI proteins and EfPiwi is from a freshwater sponge; tags in brackets are library labels; higher = faster piRNA-guided slicing of the target
# Conditions: guide: piRNA #1 5'p-UGAGGUAGUAGGUUGUAUAGUAUCCAGAGG; auxiliary factor: 500 nM mouse GTSF1
# Procedure, shortened: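 Active affinity-purified piRISC carrying one synthetic guide (1 nM) was mixed with a transcribed, DNA-blocked target RNA library […] in HEPES–potassium acetate buffer at 33 °C for 0–8 or 0–960 min, with or without 500 nM GTSF1 partner protein. Uncleaved targets were then sequenced and normalised to depth and to weakly complementary targets. Three trials were pooled, and k3 was capped at 0.0001 min^-1. A burst-and-steady-state fit was applied to obtain the pre-steady-state cleavage rate.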
# 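Further: 1 nM active piRISC with 0.1 nM target library at 33 °C single turnover.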
row,Sequence,pre-steady-state target cleavage rate
1,GCUCUGCAAACUAUACAACCUACUACCUCA,1.57 ± 0.097
2,GCUCUGGAUACUAUACAUCCUACUUCCUCA,0.433 ± 0.046
3,GGAGACCUAACUAUACAACUUACUACCUCA,0.25 ± 0.018
4,GGAGACCUAUCUAUACAACCUACUACUCA,0.199 ± 0.023
5,GGUCUGUAUACUAUACAACCUACUACCUCA,1.71 ± 0.12
6,GGAGUGGAUACAAUACAACCUACUACCACA,0.526 ± 0.045
7,GGAGACCUAUCUAUUCAACCUUCUACCUCA,0.0463 ± 0.0082
8,GGAGACCAUACUAUACAACUUACUACCUCA,0.377 ± 0.026
9,GGAGUGGAUAGUAUAGAACCUACUACCUCA,0.836 ± 0.057
10,GGAGUGGAUACUAUACAACCAUCUACCUCA,0.0428 ± 0.0099
11,CCUCUGGAUACUAUACAACCUAUACCUCA,0.0182 ± 0.0059
12,GGAGACCUAGCUAUACAACCUACUACCUCA,1.18 ± 0.17
13,CCUCUGGAUACAAUACUACCUACUACCUCA,1.2 ± 0.092
14,GGAGUGGUUACUAUACAACCUACUACCUGA,0.29 ± 0.046
15,GGAGACGAUACUACUACAACCUACUACCUCA,1.53 ± 0.11
16,GGAGACCUAACUAUACAACCUAGUUCCUCA,0.0155 ± 0.0059
17,CACUCUGGAUACUAUACAACCUACUACCUCA,2.09 ± 0.12
18,GGAGACCUAUGAUAUGUUCCUACUACCGUCA,< 0.0001
19,GCUCUGGAUACUAUCCAACCUACUACCUCA,2.05 ± 0.14
20,GCUCUGGAUACUAAUGAACCUACUACCUCA,0.437 ± 0.051

row,Sequence,pre-steady-state target cleavage rate
1,GGAGACGUUACUAUACAUCCUACUACCUCA,1.35 ± 0.092
2,GGAGACCAUACUAUACAACCUACUUACCUCA,1.45 ± 0.092
3,GGAGACCUUACUAUACAACUUACUACCUCA,0.504 ± 0.029
4,GGAGACGAUACUAUAGAACGUACUACCUCA,0.39 ± 0.035
5,GGACUCGAUACUAUACAACCUACUACGUCA,0.54 ± 0.052
6,GGAGUGGAUACUAUACAACCACUACCUCA,0.00426 ± 0.0026
7,GGAGAGGUUACUAUACAACCUACUACCACA,0.352 ± 0.023
8,GGAGACCUUUCUAUACAACCUACUAGCUCA,0.492 ± 0.043
9,GGACUGCAUACUAAACAACCUACUACCUCA,1.34 ± 0.13
10,GGACUGGAUACUAUACAACCAACAACCUCA,0.0351 ± 0.0073
11,GGACUGGAUACUAAACAUCCUACUACCUCA,1.4 ± 0.14
12,GGAGAGGAUACUUUACAACCUACUUCCUCA,0.195 ± 0.063
13,GGAGACGAUACUAUACAACCUACUACAUCA,0.865 ± 0.054
14,GGACUGGAUACUAUACAACCAACUAGCUCA,0.0135 ± 0.0029
15,GGAGUGGAUACUAUACAACCUACUACGACA,0.113 ± 0.017
16,GGAGACCUUAACUAUACAACCUACUACCUCA,1.21 ± 0.099
17,CCUCUGGAUACUAUACUUCCUACUACCUCA,0.317 ± 0.036
18,GGAGACCUAUGUAUCACAACCUACUACCUCA,0.00357 ± 0.0033
19,GGACUGGAUACUAUACAACCUACUUACCUCA,1.04 ± 0.079
20,GGAGACGAUACUAUACUACGUACUACCUCA,0.311 ± 0.029
